Data from US20240117043A1 (SHANGHAI JUNSHI BIOSCIENCES, published 2024).

How the values were obtained:
[1] = molecular target: T1, recombinant human HX1 hCD112R Fc (human, UniProt Q6DKI7 41-171, limits assumed); assay: ELISA, plate coated with recombinant human HX1 hCD112R Fc, detection with HRP anti-human IgG4 Fc; unit taken from the concentration axis [3b]
T1 construct: Coated antigen of the ELISA (Suzhou Junmeng); also called human CD112R; not shown: Fc part
T1 sequence (looked up): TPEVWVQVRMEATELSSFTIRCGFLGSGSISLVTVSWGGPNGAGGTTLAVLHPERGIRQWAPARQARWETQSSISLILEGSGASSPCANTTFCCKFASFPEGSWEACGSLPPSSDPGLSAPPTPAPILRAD
Protocol: 2. Procedures [0255] a. A 96-well plate was coated with 1.0 μg/mL recombinant human HX1 hCD112R Fc (Suzhou Junmeng) as the antigen at 100 μL/well and incubated at 37° C. for 1.5 h. [0256] b. The plate was washed 4 times with 300 μL/well 1×PBST, and 2% BSA was added at 200 μL/well. The plate was blocked at 37° C. for 1.5 h. [0257] c. The plate was washed 4 times with 300 μL/well 1×PBST, and serial dilutions of the bispecific antibodies JS-1,3,5,9 and a negative control: antibody (anti-KLH hIgG4) (initial concentration 3.0 μg/mL, 3-fold serially diluted to 12 concentration points, 100 μL/well) were added. The plate was incubated at 37° C. for 1 h. [0258] d. The plate was washed 4 times with 300 μL/well 1×PBST. [0259] e. 5000-fold diluted horseradish peroxidase (HRP)-conjugated mouse anti-human IgG4 Fc antibody (Southern Biotech, 9200-05) was added at 100 μL/well, and the plate was incubated at 37° C. for 1 h. [0260] f. The plate was washed 4 times with 300 μL/well 1×PBST. [0261] g. 0.1 mg/mL TMB was added at 100 μL/well, and after the plate was incubated at 37° C. for 15 min, a 2 M solution of hydrochloric acid was added at 100 μL/well to stop the reactions. […] The absorbance was measured at 450 nm/620 nm on a microplate reader, and data were analyzed using Graphpad Prism7.

[2] = molecular target: T2, recombinant human TIGIT (His Tag) (human, UniProt Q495A1 22-141); assay: ELISA, plate coated with recombinant human TIGIT (His Tag), detection with HRP anti-human IgG4 Fc; unit taken from the concentration axis [2b]
T2 construct: Coated antigen of the ELISA; not shown: His tag
T2 sequence (looked up): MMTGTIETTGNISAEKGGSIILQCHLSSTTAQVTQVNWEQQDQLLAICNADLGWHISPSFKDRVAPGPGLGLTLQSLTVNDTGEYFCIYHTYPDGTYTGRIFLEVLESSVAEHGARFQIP
Protocol: 2. Procedures [0241] a. A 96-well plate was coated with 1.5 μg/mL recombinant human TIGIT (His Tag) (Suzhou Junmeng) as the antigen at 100 μL/well and incubated at 37° C. for 1.5 h. [0242] b. The plate was washed 4 times with 300 μL/well 1×PBST, and 2% BSA was added at 200 μL/well. The plate was blocked at 37° C. for 1.5 h. [0243] c. The plate was washed 4 times with 300 μL/well 1×PBST, and serial dilutions of the bispecific antibodies JS-1,3,5,9 and a negative control: antibody (anti-KLH hIgG4) (initial concentration 1.0 μg/mL, 3-fold serially diluted to 12 concentration points, 100 μL/well) were added. The plate was incubated at 37° C. for 1 h. [0244] d. The plate was washed 4 times with 300 μL/well 1×PBST. [0245] e. 5000-fold diluted horseradish peroxidase (HRP)-conjugated mouse anti-human IgG4 Fc antibody (Southern Biotech, 9200-05) was added at 100 μL/well, and the plate was incubated at 37° C. for 1 h. […] The plate was washed 4 times with 300 μL/well 1×PBST. [0247] g. 0.1 mg/mL TMB was added at 100 μL/well, and after the plate was incubated at 37° C. for 15 min, a 2 M solution of hydrochloric acid was added at 100 μL/well to stop the reactions. [0248] h. The absorbance was measured at 450 nm/620 nm on a microplate reader, and data were analyzed using Graphpad Prism7.

EC50 [1]: 4.2 ng/mL
EC50 [2]: 15.8 ng/mL
B1: bispecific antibody JS-9 (IgG4) (bispecific antibody)
heavy: DIVMTQSPDSLAVSLGERATINCKASQSVSNDVAWYQQKPGQPPKLLIYYVSHRFTGVPDRFSGSGSGTDFTLTISSLQAEDVAVYFCHQAYRSPWTFGCGTKLEIKGGGGSGGGGSGGGGSGGGGSEVQLVESGGGLVKPGGSLRLSCAASGFTFSSYHMSWVRQAPGKCLELVSAINSNGINTYYLDTVKGRFTISRDNAKNSLYLQMNSLRAEDTAVYYCARHEDYYGFAMDYWGQGTLVTVSSGGGGSGGGGSQVQLVQSGAEVKKPGASVKVSCKTSGYAFTEYTMHWVRQAPGKGLEWMGGINPNTGGTTYNQKFQGRVTLTVDKSSSTAYMELSSLRSEDTVVYYCAKLLRLMYYFDYWGQGTLVTVSSASTKGPSVFPLAPCSRSTSESTAALGCLVKDYFPEPVTVSWNSGALTSGVHTFPAVLQSSGLYSLSSVVTVPSSSLGTKTYTCNVDHKPSNTKVDKRV[human IgG4 Fc with S228P (EU numbers) omitted here]
light: DIQMTQSPSSLSASVGDRVTITCQASQDVRTAVAWYQQKPGKAPKLLIYSASYRYTGVPSRFSGSGSGTDFTFTISSLQPEDIATYYCHQHYITPWTFGGGTKVEIKRTVAAPSVFIFPPSDEQLKSGTASVVCLLNNFYPREAKVQWKVDNALQSGNSQESVTEQDSKDSTYSLSSTLTLSKADYEKHKVYACEVTHQGLSSPVTKSFNRGEC
notes: Tetravalent
